For assay [1], the target named is T1, GITR expressed on cell surface (CHO cells overexpressing GITR) (Homo sapiens (Human), UniProt Q9Y5U5 26-241).
T1 construct: also called GITR on cell surface
T1 sequence: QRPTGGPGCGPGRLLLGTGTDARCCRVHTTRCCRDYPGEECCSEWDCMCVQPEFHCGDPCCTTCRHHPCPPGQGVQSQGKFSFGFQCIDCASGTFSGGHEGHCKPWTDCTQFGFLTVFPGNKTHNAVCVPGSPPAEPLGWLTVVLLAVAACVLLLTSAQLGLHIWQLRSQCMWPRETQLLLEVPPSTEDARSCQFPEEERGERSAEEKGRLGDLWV
The assay is described as follows: FACS on CHO cells overexpressing GITR.

For a further assay, the target named is T2, human GITR-His (human, UniProt Q9Y5U5 26-161).
T2 construct: Bought soluble protein; also called GIR-H5228-1MG
T2 sequence (looked up): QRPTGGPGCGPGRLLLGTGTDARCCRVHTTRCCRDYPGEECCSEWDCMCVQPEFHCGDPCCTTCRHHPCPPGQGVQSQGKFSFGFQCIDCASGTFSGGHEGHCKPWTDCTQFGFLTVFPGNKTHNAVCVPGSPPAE
The assay is described as follows: ForteBio Octet BLI, antibody on AHC tip, human GITR-His 50 nM in solution, monovalent. As to the method: A ForteBio affinity assay was performed according to the method reported in the literature (Estep, P, et al., High throughput solution Based measurement of antibody-antigen affinity and epitope binning MAbs, 2013, 5(2): p. 270-278). Briefly, the AHC sensor (Pall, Catalog No.: 1506091) was immersed in a SD buffer (PBS 1×, BSA 0.1%, Tween 20 0.05%) and equilibrated at room temperature, half an hour before the experiment. […] The anti-human IgG Fc biosensor AHC was immersed in each well containing the antibody solution, and immersed at room temperature for 600 s to load the samples. The sensor was then washed in the SD buffer until it returned to the baseline, and then immersed in a well containing 100 μL of the antigen solution to monitor the binding of the antibody to the antigen. The sensor was then transferred to a well containing 100 μL of the SD buffer to monitor the antibody dissociation. The rotation speed was 400 rpm and the temperature was 30° C. The background-corrected association and dissociation curves were fitted by the Octet analysis software (ForteBio) to generate the binding rate constant (kₒₙ) and dissociation rate constant (kdis), which are then used to calculate the equilibrium dissociation constant (KD).

B1: hcIgG-10 (Fc fusion)
chain: QVQLQESGGGLVQPGGSLRLSCAASGFAFGSSHMSWVRRAPGKGLEWVSTIHSGGGFGDYANSVQGRFTISRDVAKNTLYLQMNSLKPEDTAIYYCALATDWRKPPGQGTQVTVSS[… human IgG1 Fc …]
notes: VHH-Fc heavy-chain-only antibody; also called parent monospecific antibody against GITR; parent antibody hcIgG-10
Take B1: the concentration giving a half-maximal response (EC50) in assay [1] came to 0.606 nM. Besides, in the assay with human GITR-His, the Kd came out at 2.57 nM, the koff came out at 0.000602 s⁻¹ and the kon came to 234000 M⁻¹ s⁻¹.

The term EC50 denotes the concentration giving half of the maximal effect. High values mean a less potent agent, low ones a more potent agent. In general, Kd refers to the equilibrium constant for the complex coming apart. A lower Kd goes with a tighter complex. The koff is a measure of how fast the partners let go of each other. A higher koff goes with a short-lived complex. One may read the kon as a measure of how fast the partners come together. A low value points to slow association.

The values are drawn from patent publication US20220041702A1 (Innovent, published 2022).
